Source: PubChem BioAssay AID1240 (Sanford-Burnham Center for Chemical Genomics, 2008)
Screen size: about 50,000 compounds; about 800 (1.6%) showed an effect of 50% or more. This is one part of the list.

Target: Bcl-2-like protein 10 (Homo sapiens) (UniProt Q9HD36)
Assay: Phenotype converters, Bcl-B/TR3 peptide binding displacement, primary biochemical FP (AID 1240);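 further: 0% = Bcl-B with tracer peptide and DMSO and 100% = tracer peptide lacking Bcl-B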
Conditions: GST-Bcl-B / FITC-TR3 peptide fluorescence polarization; stronger effect = higher value; compound at 3.75 mg/L

Sequence of UniProt Q9HD36 (Q9HD36 whole entry, looked up): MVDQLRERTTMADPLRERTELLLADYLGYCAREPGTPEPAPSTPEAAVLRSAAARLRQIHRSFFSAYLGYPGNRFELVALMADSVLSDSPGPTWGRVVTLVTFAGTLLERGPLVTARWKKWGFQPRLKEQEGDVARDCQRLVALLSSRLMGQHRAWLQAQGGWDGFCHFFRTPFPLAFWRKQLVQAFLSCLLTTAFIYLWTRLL

Row | Structure (SMILES) | displacement [%]
1 | CCN(CC)CCCCOc1ccc(OC)cc1 | 3.1
2 | CC(C)c1ccc(N2C(=O)NC(=O)/C(=C/c3ccc4c(c3)OCO4)C2=O)cc1 | -24.8
3 | Cc1cc([N+](=O)[O-])ccc1NC(=O)c1cccc(N2C(=O)c3ccccc3C2=O)c1 | -19
4 | Cc1cc(C)c(OCC(=O)Nc2ccc(Br)cc2)c(C)c1 | 9.9
5 | CCCOC(=O)c1cccc(NC(=O)COc2ccc([N+](=O)[O-])cc2)c1 | -7.3
6 | COC(=O)C1=C(C)N(CC2CCCO2)C(=O)/C1=C\c1ccc(OC)c([N+](=O)[O-])c1 (stereo not drawn) | -7.3
7 | CC(NC(=O)CCN1CCOCC1)C1COc2ccccc2O1 (stereo not drawn) | -3.5
8 | CC(=O)Nc1cccc(N=Cc2ccccc2O)c1 | 11.5
9 | COc1cc(Sc2ccccc2[N+](=O)[O-])ccc1N | 10.1
10 | O=C1C2C(C(=O)N1/N=C/c1ccc(Cl)cc1Cl)C1C=CC2C12CC2 (stereo not drawn) | 4.5
11 | CC12CC3CC(C1)CC(NC(=O)c1ccccn1)(C3)C2 | 2.7
12 | Cc1ccc(C)c(NC(=O)/C=C/c2ccc3c(c2)OCO3)c1 | -12.8
13 | N#CC1C(=O)NC(=S)C(C#N)C12CCC(c1ccccc1)CC2 (stereo not drawn) | -23.5
14 | O=C(O)CN1C(=O)/C(=C\c2cc([N+](=O)[O-])cc(Br)c2O)SC1=S | -73.9
15 | COc1cccc(C2C(C(=O)Nc3ccccc3)=C(C)N=c3s/c(=C\c4c[nH]c5ccccc45)c(=O)n32)c1 (stereo not drawn) | 113
16 | O=C(NC(=S)Nc1ccccc1[N+](=O)[O-])c1ccccc1Cl | -14
17 | COCCOC(=O)C1=C(C)NC(C)=C(C(=O)OCCOC)C1c1cn(-c2ccccc2)nc1-c1ccc(F)cc1 | 6.2
18 | COc1ccc(C(=O)Nc2cccc(NC(=O)c3ccc(Cl)cc3Cl)c2)cc1 | 10.2
19 | CCOc1ccccc1C(=O)Nc1ccc(Cl)cc1[N+](=O)[O-] | 4.1
20 | Cc1cc(/C=N/n2cnnc2)c(C)n1C | 3.5
21 | O=C(Nc1ccccc1O)c1ccc2c(c1)C(=O)N(c1cccc(C(=O)c3ccccc3)c1)C2=O | 15
22 | O=Cc1cn(-c2ccccc2)nc1-c1ccc(Cl)cc1 | 7.5

Row | Structure (SMILES) | displacement [%]
23 | O=C1CC(N=CN2CCOCC2)=NN1c1ccccc1 | -7.9
24 | COC(=O)C1=C(O)/C(=C/c2cc(C)n(-c3cc(Cl)ccc3Cl)c2C)N=C1C | 22.3
25 | COc1ccc(NC2=CC(=O)CC(c3ccco3)C2)c(OC)c1 (stereo not drawn) | 1.9
26 | O=C(NC(Nc1ccccc1)C(=O)c1cccs1)c1ccccc1 (stereo not drawn) | 7.8
27 | O=C1C(Cc2c[nH]c3ccccc23)NC(=S)N1c1ccccc1 (stereo not drawn) | 13.7
28 | CCOc1ccc(N2C(=O)CSC23C(=O)Nc2ccccc23)cc1 (stereo not drawn) | 6.8
29 | Cc1onc(-c2ccccc2)c1C(=O)Nc1ccc(I)cc1 | -0.6
30 | COC(=O)C1=C(C)N(c2ccc(C)cc2)/C(=C\c2ccc(OCC(N)=O)cc2)C1=O | 11.7
31 | COc1ccc2c(c1)CC/C2=N/OC(=O)c1ccc(OC)c(OC)c1 | 5.7
32 | CN1C(=O)NC(=O)/C(=C\c2cccc(O)c2)C1=O | -6.7
33 | Cc1ccc(/C(O)=C2\C(=O)C(=O)N(CCCC(=O)O)C2c2cccc([N+](=O)[O-])c2)cc1 (stereo not drawn) | -1
34 | Cc1ccc(C(=O)Nc2nc3ccccc3n2CCN2CCCC2)cc1 | -2.7
35 | O=C1NC(c2ccccc2Cl)Nc2sc3c(c21)CCCC3 (stereo not drawn) | -0.9
36 | Cc1ccc(NC(=S)Nc2ccc(F)cc2)cc1C | -5.2
37 | CC1(C)Nc2ccc(OC(=O)c3ccccc3Br)cc2-c2c1ssc2=S | -5.6
38 | O=C1OC(C23CC4CC(CC(C4)C2)C3)=N/C1=C\c1ccccc1 | 15.4
39 | CCOC(=O)C1CCN(C(=O)Cc2ccc(OC)c(OC)c2)CC1 | 1.3
40 | CC(C)c1ccc(NS(=O)(=O)c2cc(Cl)ccc2Cl)cc1 | -7.8
41 | Cc1cccc(-n2c(O)c(C=Nc3ccccc3C)c(=O)[nH]c2=O)c1 | 3.4
42 | Cc1cc(C(=O)N/N=C(\CCC(=O)O)c2ccccc2)n[nH]1 | -6.6
43 | Cc1ccc(NC(CC(=O)O)C(=O)O)cc1 (stereo not drawn) | 28.9
44 | Cc1ccc(NC(=O)/C(C#N)=C2\NC(C)(C)Cc3ccccc32)cc1 | 0.7

Row | Structure (SMILES) | displacement [%]
45 | COCC(=O)Nc1nc2ccccc2s1 | 13.2
46 | CN1CCc2c1nc1ccccc1c2NC(=O)CN1CCCC1 | -8.7
47 | CCCOc1ccc(N2C(=O)CC(N3CCC(C(=O)OCC)CC3)C2=O)cc1 (stereo not drawn) | 3.8
48 | COC(=O)CN(c1cccc(Cl)c1Cl)S(=O)(=O)c1ccccc1 | -2.9
49 | COC(C)(C)c1cc(C(C)(C)C)nc(N)n1 | -1.6
50 | Cc1cc(C(=O)Nc2ccc(I)cc2C(=O)O)ccc1[N+](=O)[O-] | 8
51 | O=C(CCNc1cccc(C(F)(F)F)c1)c1cccs1 | -12.3
52 | Cc1ccc(C2OC3(C(=O)c4ccccc4C3=O)C(c3ccc(Br)cc3)C23C(=O)c2ccccc2C3=O)cc1 (stereo not drawn) | -7.9
53 | COc1ccccc1/C=C/C=NN1CCN(Cc2ccccc2)CC1 | -3.3
54 | Cc1cc(OCC(O)CN2CCN(c3ccccc3)CC2)cc(C)c1Cl (stereo not drawn) | -3
55 | Nc1ccccc1C(=O)N/N=C\c1ccc(Br)o1 | -6
56 | CC(Oc1ccccc1)C(=O)Nc1ccc(-c2nc3ccccc3o2)cc1 (stereo not drawn) | -5.1
57 | C=CCN1C(=O)/C(=C\c2cccc3ccccc23)C(=O)NC1=S | 9.4
58 | Cc1ccc(S(=O)(=O)NNC(=O)c2ccoc2C)cc1 | 10
59 | C/C(=N\NC(=O)c1ccc(O)cc1O)c1ccccn1 | 3.2
60 | Cc1ccccc1C(=O)Nc1c(C(=O)N2CCCC2)cnn1-c1ccccc1 | -5.4
61 | COc1ccc(NC(=O)CC(c2ccccc2)c2ccccc2)c(OC)c1 | -1.8
62 | NC(=S)N/N=C(\c1ccccc1)C12CC3CC(CC(C3)C1)C2 | -2.7
63 | NC(=O)c1c(NC(=O)c2ccc(S(=O)(=O)N3CCCCC3)cc2)sc2c1CCCC2 | -2.2
64 | Cn1cc(-c2nc3ccccc3[nH]2)c2ccccc21 | 13.2
65 | Cc1cc(-c2ccc(C=C3C(=O)NC(=S)NC3=O)o2)c([N+](=O)[O-])cc1C | 26.1
66 | Cc1ccc(-n2c(-c3ccccc3)n[nH]c2=S)cc1 | -10.5

Row | Structure (SMILES) | displacement [%]
67 | CCOc1ccc(C(=O)Nc2cc3nn(-c4ccc(C)cc4)nc3cc2C)cc1[N+](=O)[O-] | 6.8
68 | CCCCc1nnc(NC(=O)CN2C(=O)/C(=C/c3ccccc3Cl)SC2=S)s1 | -9.1
69 | Cc1ccc(NC(=O)C2CC(=O)N(c3cccc([N+](=O)[O-])c3)C2)cc1C (stereo not drawn) | -9.8
70 | Cc1cccc(/C(N)=N/OC(=O)c2ccc(C)c([N+](=O)[O-])c2)c1 | 2.2
71 | COCCCNC(=O)c1cc(-c2ccccc2)nc2ccccc12 | -3.9
72 | O=C(/C=C/c1cccc(Cl)c1)c1ccc2c(c1)OCCO2 | -7.4
73 | O=C1C(=Cc2ccc(OCc3ccc(F)cc3)c(Br)c2)C(=O)c2ccccc21 | 19.1
74 | COc1ccc(Cl)cc1C(=O)NCc1cccnc1 | -8.5
75 | O=C(NCC(O)c1ccccc1)C(=O)NC1CC1 (stereo not drawn) | 6.9
76 | Cc1cc(Nc2ccccc2)c2c([N+](=O)[O-])cc(C)c(C)c2n1 | -1.6
77 | O=C(O)c1cccnc1SC1CC(=O)N(c2cccc(C(F)(F)F)c2)C1=O (stereo not drawn) | -3.7
78 | CC1=NN(c2ccc(Cl)c(C(=O)O)c2)C(=O)/C1=C\c1cccc([N+](=O)[O-])c1 | -2.6
79 | CCOCCOC(=O)c1ccc(NC(=O)c2ccncc2)cc1 | 7.1
80 | CC1CCc2sc3nc(Cc4ccccc4)n(N)c(=O)c3c2C1 (stereo not drawn) | -1.3
81 | O=C(Nc1nc(-c2ccccc2)cs1)c1ccc(S(=O)(=O)N2CCOCC2)cc1 | 0
82 | O=C(c1nn2c(C(F)(F)F)cc(-c3ccco3)nc2c1Cl)N1CCCCC1 | 2.3
83 | COc1ccccc1C(=O)NCCCC(=O)O | 7.8
84 | O=C(CCc1ccccc1)NNC(=O)c1ccc(F)cc1 | -12.1
85 | COc1ccc(NC(=O)CN(c2ccc(Cl)cc2)S(C)(=O)=O)c(OC)c1 | 10.7
86 | COc1ccc(NC(=O)c2nn3c(C(F)(F)F)cc(-c4cccs4)nc3c2Br)c(OC)c1 | 37.8
87 | COc1ccc(OC)c(NC(=O)COc2ccc(Br)cc2C)c1 | 4.7
88 | COc1ccc(/C=C/C(=O)c2c3c(c(C)[nH]c2=O)CCCC3)cc1 | 7.3

Row | Structure (SMILES) | displacement [%]
89 | COc1ccc(/C=C2\SC(=Nc3ccc(F)cc3)NC2=O)cc1OC | 9.6
90 | O=C1CC(CC(=O)N/N=C/c2ccccc2[N+](=O)[O-])=NN1 | -8.8
91 | CCC(C)(C#CCN1CCCC1)OC(C)=O (stereo not drawn) | 7.1
92 | Cc1ccc(C(=O)N2CCN(c3ccc(F)cc3)CC2)cc1[N+](=O)[O-] | -16.8
93 | COC(=O)C1=C(C)NC2=C(C(=O)CC(C)(C)C2)C1c1ccc(OCc2ccccc2Cl)c(OC)c1 (stereo not drawn) | -21.7
94 | O=C(CN1C(=O)c2cccc([N+](=O)[O-])c2C1=O)N1CCc2ccccc2C1 | 0.3
95 | CC1(C)CC(=O)C2=C(C1)Nc1ccccc1N(C(=O)Cc1ccccc1)C2c1ccc(Cl)cc1 (stereo not drawn) | 6.7
96 | COc1ccc(N(CC(=O)Nc2cc(C)ccc2C)S(C)(=O)=O)c(OC)c1 | 17.3
97 | COC(=O)c1ccc(NC(=S)NC(=O)CCN2C(=O)c3ccccc3C2=O)cc1 | 5.7
98 | Cc1ccc(NC(=O)C2COc3ccccc3O2)cc1C (stereo not drawn) | -2.7
99 | CCc1ccc(C(=O)/C=C/c2ccc([N+](=O)[O-])o2)cc1 | -14.7
100 | O=C(COc1ccccc1)Nc1ccc(Cl)c(-c2nc3ncccc3o2)c1 | 3.7
101 | Cc1c(C)c2ccc(OC(C)C(=O)c3ccccc3)cc2oc1=O (stereo not drawn) | 10.5
102 | COc1ccc(N(CC(=O)Nc2cccc(C(F)(F)F)c2)S(=O)(=O)c2ccccc2)cc1 | 8.8
103 | CSC1=[N+](c2ccccc2)C(O)C(C)CN1 (stereo not drawn) | -43.4
104 | O=[N+]([O-])c1cc(C(F)(F)F)cc([N+](=O)[O-])c1Nc1cccc(Cl)c1Cl | 7.4
105 | O=C1Nc2ccccc2/C1=N\N=C\c1c(F)cccc1Cl | 5.2
106 | CN(/C(=N\S(=O)(=O)c1ccc(Cl)cc1)c1ccccc1)c1ccc(O)cc1 | 1
107 | COc1ccc(NC(=O)C2CCCN(Cc3ccccc3)C2)cc1OCC(C)C (stereo not drawn) | -2.4
108 | O=C(O)c1cc(C(=O)O)cc(N2C(=O)c3ccc(Oc4cccc([N+](=O)[O-])c4)cc3C2=O)c1 | 3.2
